Experimental findings from PubChem BioAssay AID463173 (ICCB-Longwood Screening Facility, Harvard Medical School, 2010) are described below.

Structures are written as SMILES. Among all 52,000 compounds or so, about 1,700 (3.3%) were called active. Cut-off read from the data, not from the text of the source: active = survival mostly below about 52% (no sharp cut-off); inactive = mostly above about 56%. Some of the results follow.

For the assay, the system named is Wild type. Description: S. aureus survival, RN4220 and DeltatarO strains – OD600, teichoic acid synthesis inhibitors, primary screen (AID 463173). As to conditions: S. aureus RN4220 wild type/DeltatarO growth, OD600, 18 h, hits give low values, screened at 18.75 µg/mL (by protocol).
With `COc1cc2c(cc1OC)C(COc1cc(C)cc(C)c1)N(C(=O)C(C)(C)C)CC2` (stereo not drawn), the survival is inactive: 70%.

Take `CCC(Nc1ccc(-c2nc(-c3ccccn3)no2)cc1[N+](=O)[O-])c1ccccc1` (stereo not drawn): the survival is inactive: 70%.

Turning to `CC1(C)C(=O)NC(=O)N1CN1C(=O)NC(=O)C1(C)C`, the survival is inactive: 111%.

As to `O=C(NCc1ccco1)c1ccc(S(=O)(=O)NCC2CCCCC2)cc1`, the survival was inactive: 105%.

On to `CCCCN(C)C(=O)CCC(=O)NNc1nc2ccccc2c2nc(C)nn12`, for which the survival is inactive: 78%.

For the molecule `Cc1ccc(C(c2sc3nc(-c4ccco4)nn3c2O)N2CCN(c3ccc(F)cc3)CC2)cc1` (stereo not drawn), the survival was inactive: 110%.

`Cc1oc(-c2cccc(Cl)c2)nc1Cn1c(SCc2ccc(F)cc2)nc2cccnc21`: the survival is inactive: 77%.

In the case of `Cc1cccc(N2CCn3c2nc2c3c(=O)n(CCCc3ccccc3)c(=O)n2C)c1`, the survival is inactive: 90%.

As to `COc1cc2c(C(=O)N(C)c3cccc(C(F)(F)F)c3)cn(CC(C)C)c(=O)c2cc1OC`, the survival was inactive: 141%.

As to `COc1cc(CN(C(=O)COc2ccccc2)c2ccccn2)cc(OC)c1OC`, the survival was inactive: 84%.

As for `Cc1ccc(C2CC(=O)Nc3c2c(C)nn3-c2nc(C)cc(C)n2)c(C)c1` (stereo not drawn), the survival was inactive: 118%.

In the case of `O=C(CCCCCn1c(=O)c2sccc2n(CC(=O)Nc2ccccc2F)c1=O)NCc1ccc2c(c1)OCO2`, the survival is inactive: 100%.

For `CCC(C)OC(=O)/C(C#N)=C/c1ccc(-c2ccc(Br)cc2)o1` (stereo not drawn), the survival is inactive: 54%.

For the molecule `Cc1cc2n(n1)CCCN2C(=O)Nc1ccccc1C(F)(F)F`, the survival is inactive: 88%.

`CCc1ccc(S(=O)(=O)c2nnn3c2nc(N(CC)Cc2ccccc2)c2cc(Cl)ccc23)cc1`: the survival is inactive: 92%.

As to `COC(=O)c1cc(-c2ccccc2)sc1N`, the survival is inactive: 116%.

With `COC(=O)CN1C(=O)CSc2ccc(S(=O)(=O)Nc3ccc(C)c(Cl)c3)cc21`, the survival is inactive: 79%.

Consider `O=C(Cc1ccc(-c2ccccc2)cc1)NCCS(=O)(=O)N1CCN(c2ccccc2F)CC1`, for which the survival is inactive: 80%.

For `CCc1nnc(NC(=O)C2CCCO2)s1` (stereo not drawn), the survival is inactive: 90%.

With `COc1cccc(NC(=O)C2CCCN(c3ncnc4onc(C)c34)C2)c1` (stereo not drawn), the survival was inactive: 72%.

Regarding `O=C(Nc1ccccc1C(=O)N1CCCCC1)c1nsc2ccccc12`, the survival is inactive: 159%.

Regarding `COc1ccc(NC(=O)CNC(=O)Cn2ccc3ccccc3c2=O)cc1OC`, the survival is inactive: 91%.

Regarding `CCc1ccc(NC(=O)c2cc(=O)c3ccc(C)c(C)c3o2)cc1`, the survival is inactive: 99%.

For the molecule `CCCCCOc1ccc(/C=C/C(=O)Nc2sc3c(c2C(=O)OCC)CCC3)cc1OC`, the survival is inactive: 70%.

Turning to `CNC(=O)c1cnc2sc(N3CCC(C)CC3)nn2c1=O`, the survival was inactive: 71%.

For the molecule `CCCCOc1cccc(C2c3c(-c4cc(C)ccc4O)n[nH]c3C(=O)N2CCOC)c1` (stereo not drawn), the survival was inactive: 25%.

As to `O=C(Nc1ccc(F)c(F)c1)c1cc(S(=O)(=O)NC2CCCC2)ccc1F`, the survival was inactive: 133%.

With `Cc1cccc(N2CCN(CCCNc3ncnc4onc(-c5ccc(F)cc5)c34)CC2C)c1` (stereo not drawn), the survival was inactive: 71%.

Regarding `O=C(CCNS(=O)(=O)c1ccc2c(c1)CCN2C(=O)C1CC1)Nc1ccc(OC(F)(F)F)cc1`, the survival is inactive: 77%.

For `CCOC(=O)c1[nH]c(C)c(CN(C(C)=O)c2ccc(OCC)cc2)c1C`, the survival was inactive: 94%.

In the case of `COc1cccc(C(=O)Nc2ccc3nc(SCCOc4ccccc4)sc3c2)c1`, the survival was inactive: 91%.

For the molecule `CCc1ccc2oc(-c3cc(NC(=O)c4cccs4)ccc3Cl)nc2c1`, the survival was inactive: 12%.

Regarding `CCC(C)NC(=O)Cn1ccc2cc(S(=O)(=O)N3CCCCCC3)ccc21` (stereo not drawn), the survival was inactive: 133%.

Take `COc1cccc2cc(C(=O)Nc3ccc(C)cc3)c(=O)oc12`: the survival was inactive: 71%.

As for `Cc1ccc(CCNC(=O)c2ccc3c(c2)N(Cc2cccc(F)c2)C(=O)c2ccccc2S3)cc1`, the survival was inactive: 71%.

With `Cc1ccc2c(=O)cc(C(=O)Nc3sc4c(c3C(=O)NCc3cccnc3)CCCC4)oc2c1`, the survival is inactive: 89%.

Consider `CCOC(=O)c1ccc(NC(=O)C2=C(C)C(=O)OC23CCN(C(C)C)CC3)cc1`, for which the survival is inactive: 82%.

With `CCc1ccc(CN2CCC(C(=O)N(C)CCc3ccc(OC)c(OC)c3)CC2)cc1`, the survival was inactive: 111%.

In the case of `O=C(NCC(c1cccnc1)N1CCc2ccccc21)c1ccc(Cl)cc1` (stereo not drawn), the survival was inactive: 80%.

For the molecule `Cc1ccc(-n2ncc(C(=O)NCCN3CCC(Cc4ccccc4)CC3)c2C2CCN(C(=O)OC(C)(C)C)CC2)cc1`, the survival was inactive: 120%.

Regarding `Cc1ccc(CN(C(=O)COc2ccc(F)cc2)C2CCS(=O)(=O)C2)o1` (stereo not drawn), the survival is inactive: 90%.

In the case of `Nc1nnc(CCCCn2c(-c3nonc3N)nc3ccccc32)s1`, the survival was inactive: 102%.

For the molecule `CCn1cc(S(=O)(=O)c2ccccc2)c(=O)c2cc(F)c(F)cc21`, the survival is inactive: 82%.

Consider `COc1ccc(-c2cc(C(F)(F)F)nc(SCC(=O)NC(C)c3ccccc3)n2)cc1` (stereo not drawn), for which the survival is inactive: 78%.

For `CC(C)CCNC(=O)c1ccc2nc(Cc3ccccc3)oc2c1`, the survival was inactive: 47%.

As to `Cc1cc(NS(=O)(=O)c2ccc(NC(=O)COc3cc(C)c(Br)cc3C(C)C)cc2)no1`, the survival was inactive: 40%.

Turning to `CCOc1ccc(N(CC)C(=O)Cn2cnc3sc(C)c(S(=O)(=O)N4CCN(c5ncccn5)CC4)c3c2=O)cc1`, the survival was inactive: 78%.

For the molecule `Cc1ccc(NC(=O)C2CCCN(S(=O)(=O)c3cccs3)C2)c(C)c1` (stereo not drawn), the survival is inactive: 71%.

As to `CCCN1C(C(=O)c2ccccc2)=C(OC(=O)COc2ccc(C)cc2)c2ccccc2S1(=O)=O`, the survival is inactive: 25%.

For the molecule `COC(=O)CN1C(C(=O)c2ccccc2)=C(OC(=O)c2ccccc2)c2ccccc2S1(=O)=O`, the survival was inactive: 87%.

As to `Cc1ccc(NC(=O)CCCn2nc(C)c3c(C)n(-c4ccccc4)nc3c2=O)c(Cl)c1`, the survival is inactive: 113%.

On to `CCOC(=O)c1cc(NC(=O)c2ccc(F)cc2)c(=O)n2c1oc1ccc(Cl)cc12`, for which the survival was inactive: 133%.

In the case of `CCCSCCCNC(=O)Cn1c(-c2cccs2)cc2ccccc21`, the survival is inactive: 73%.

In the case of `Cc1cc(O)c(CN2CCN(c3ccccc3)CC2)c2oc(=O)cc(C)c12`, the survival was inactive: 82%.

`O=C(Nc1c2c(nn1-c1ccc(Cl)cc1)CS(=O)(=O)C2)c1ccc(Br)cc1`: the survival was inactive: 64%.

In the case of `COc1cccc(NC(=O)N(Cc2nc3ccccc3c(=O)[nH]2)C2CCCCC2)c1`, the survival is inactive: 122%.

Take `Cc1nc(-c2ccc(S(=O)(=O)NCc3ccccc3Cl)cc2)co1`: the survival was inactive: 80%.

Turning to `CCN1CCN(C(=O)Cn2ncc3c4ccccc4n(Cc4c(C)cc(C)cc4C)c3c2=O)CC1`, the survival is inactive: 126%.

As to `CCCCN(CCCC)C(=O)c1c[nH]c2ccc(S(=O)(=O)Nc3cccc(Cl)c3C)cc2c1=O`, the survival is inactive: 70%.

For the molecule `CC1=C(C(N)=O)C(c2ccc(C)cc2)n2nc(SCc3ccccc3)nc2N1` (stereo not drawn), the survival was inactive: 128%.

On to `COc1ccc(S(=O)(=O)Nc2cccc(-c3ccc(N4CCCC4)nn3)c2)cc1F`, for which the survival was inactive: 100%.

`Cc1ccccc1NC(=O)CSc1ccc(-c2ccccn2)nn1`: the survival was inactive: 111%.

On to `COc1ccccc1-c1nn(CCC(=O)Nc2ccc(C)cc2)c2nc(C)cc(C)c12`, for which the survival is inactive: 89%.

Take `CCN1CCN(CCCNC(=O)Cn2nc(C)n3c(cc4c(OC)cccc43)c2=O)CC1`: the survival was inactive: 94%.

As for `CCCCCn1c(CCCNC(=O)c2ccccc2OC)nc2ccccc21`, the survival is inactive: 68%.

As to `O=C(NCc1ccccc1Cl)C1=Cc2cc(Br)ccc2OC1`, the survival is inactive: 121%.

Turning to `COC(=O)c1cc2c(=O)n3ccccc3nc2n(CCN2CCOCC2)c1=N`, the survival is inactive: 97%.

As for `Cc1cccc2c(=O)c(N)c[nH]c12`, the survival is inactive: 111%.

With `O=S(=O)(NCCCO)c1ccc2c(c1)Cc1cc(S(=O)(=O)NCCCO)ccc1-2`, the survival was inactive: 107%.

Regarding `CC(C)Oc1ccc(CNC(=O)c2cnc3sc(N4CCCC4)nn3c2=O)cc1`, the survival is inactive: 67%.

As to `CCOC(=O)NNC(=O)C1CCC(C)CC1` (stereo not drawn), the survival was inactive: 64%.

`Cc1oc2c(c1C(=O)NCc1ccccc1F)C1=NCCN1C=N2`: the survival was inactive: 80%.

On to `O=C(NCC(c1ccc2c(c1)OCO2)N1CCN(c2ccccc2)CC1)C(=O)Nc1ccccc1F` (stereo not drawn), for which the survival is inactive: 85%.

Consider `CC(=O)Nc1cccc(-c2nnc(SCC(=O)c3cc([N+](=O)[O-])ccc3Cl)o2)c1`, for which the survival is inactive: 85%.

With `CCN(CC)C(=O)Cn1ncc2c([nH]c3ccccc32)c1=O`, the survival is inactive: 128%.

As for `COc1cccc(N2CCN(C(=O)c3ccc4nc(N5CCC(C)CC5)sc4c3)CC2)c1`, the survival was inactive: 42%.

Take `CCOC(=O)c1cnc2ccc(C(=O)OC)cc2c1Nc1ccc(OCc2ccccc2Cl)cc1`: the survival was inactive: 129%.

Consider `CCN1C(=O)C2C(c3ccc(F)cc3)NC(CCSC)(C(=O)OC)C2C1=O` (stereo not drawn), for which the survival was inactive: 96%.

In the case of `CCOc1ccc(NC(=O)CC2C(=O)N(c3ccc(OC)cc3)C(=O)N2CCC2=CCCCC2)cc1` (stereo not drawn), the survival was inactive: 69%.

Take `COc1ccc(C)cc1NC(=O)N(C(C)C)C1CCN(C(C)=O)CC1`: the survival was inactive: 85%.

Take `Cc1ccc(N2CCN(c3nc4ccc(C(=O)c5ccccc5)cc4n4cnnc34)CC2)c(C)c1`: the survival was inactive: 72%.

Take `COc1ccccc1Nc1nn2c(=O)c3ccc(C(=O)NCCc4ccccc4)cc3nc2s1`: the survival is inactive: 68%.

Take `Cc1ccc(-c2nnc3ccccc3c2C(=O)Nc2ccc(F)cc2)cc1`: the survival is inactive: 143%.

Turning to `COc1ccc(C(C)=O)cc1CSc1nc(Nc2ccc(F)c(F)c2)c2ccccc2n1`, the survival is inactive: 19%.

As for `O=C(O)c1cc(-c2ccccc2)nn1Cc1ccccc1`, the survival is inactive: 68%.

As for `Cc1ccn2c(Nc3ccccc3)c(-c3c[nH]c4ccccc34)nc2c1`, the survival was inactive: 68%.

Turning to `Cc1cc(C)cc(NC(=O)C(=O)NCCc2sc(-c3cccc(F)c3)nc2C)c1`, the survival is inactive: 99%.

In the case of `O=C(CSc1nc2ccccc2c(=O)n1C1CCCCC1)NCc1ccco1`, the survival was inactive: 106%.
